In the supplement of paper PMC4604168 (melanoma cell lines):
The list shows a part of the results. Single values are uncertain, as repeats are few or missing.

What was measured:
Test in all cases: cell count relative to DMSO control; melanoma cells; higher = more viable cells
Details in all cases: library dose: standard library concentration; 72 h
G361 = test system: G361
IPC-298 = test system: IPC-298
IST-MEL1 = test system: IST-MEL1
LB2518-MEL = test system: LB2518-MEL
LOXIMVI = test system: LOXIMVI
MEL-HO = test system: MEL-HO
MZ2-MEL = test system: MZ2-MEL
MeWo = test system: MeWo
RPMI7951 = test system: RPMI7951
RVH-421 = test system: RVH-421
SkMel28 = test system: SkMel28
SkMel2 = test system: SkMel2
SkMel30 = test system: SkMel30
SkMel5 = test system: SkMel5
UACC257 = test system: UACC257
UACC62 = test system: UACC62
WM115 = test system: WM115
WM1716 = test system: WM1716
WM1745 = test system: WM1745
WM3526 = test system: WM3526
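Also: cells treated in 1,536-well plates, then fixed and DAPI-stained, with nuclei counted from automated high-throughput microscope images.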

| SMILES | cell count (G361) | cell count (IPC-298) | cell count (IST-MEL1) | cell count (LB2518-MEL) | cell count (LOXIMVI) | cell count (MEL-HO) | cell count (MZ2-MEL) | cell count (MeWo) | cell count (RPMI7951) | cell count (RVH-421) | cell count (SkMel28) | cell count (SkMel2) | cell count (SkMel30) | cell count (SkMel5) | cell count (UACC257) | cell count (UACC62) | cell count (WM115) | cell count (WM1716) | cell count (WM1745) | cell count (WM3526) |
| --- | --- | --- | --- | --- | --- | --- | --- | --- | --- | --- | --- | --- | --- | --- | --- | --- | --- | --- | --- | --- |
| NC(=O)c1ccc(N(C(N)=O)c2c(F)cccc2F)nc1-c1ccc(F)cc1F + CC1(C)NC(=O)N(c2ccc([N+](=O)[O-])c(C(F)(F)F)c2)C1=O [nilutamide] (first compound 2 µM, partner dose 5 µM) | 96.6% | 115% | 176% | 104% | 81.3% | 98% | 120% | 102% | 97.7% | 459% | 79.4% | 94.4% | 121% | 77.8% | 94.6% | 83.5% | 112% | 141% | 93.7% | 87.7% |
| NC(=O)c1ccc(N(C(N)=O)c2c(F)cccc2F)nc1-c1ccc(F)cc1F + COc1cc(Nc2ncc(F)c(Nc3ccc4c(n3)NC(=O)C(C)(C)O4)n2)cc(OC)c1OC [Tamatinib] (first compound 2 µM, partner dose 2 µM) | 78.8% | 98.2% | 73.4% | 107% | 28.1% | 77% | 73.3% | 77.4% | 16.3% | 89.4% | 64.6% | 104% | 115% | 52.1% | 68.8% | 81.2% | 77.5% | 77.9% | 38.3% | 74.4% |
| CC(C)(C)c1cnc(CSc2cnc(NC(=O)C3CCNCC3)s2)o1 + O=C(O)c1ccc(-c2c[nH]c3ncc(-c4ccccc4)cc23)cc1C1CCCC1 [GSK650394] (first compound 0.05 µM, partner dose 0.8 µM) | 54.8% | 92.1% | 82.7% | 81.9% | 88% | 76.4% | 82.1% | 75.6% | 41.3% | 84% | 48.6% | 74.6% | 84.8% | 78.1% | 73.6% | 61.3% | 93% | 79.2% | 83.5% | 81.8% |
| COc1cc2c(Oc3ccc4[nH]c(C)cc4c3F)ncnc2cc1OCCCN1CCCC1 [cediranib] + COc1ccc2c(c1)CCC1C2CCC2(C)C(NCCCCCCN3C(=O)C=CC3=O)CCC12 [U73122] (first compound 2 µM, partner dose 2 µM) | 107% | 111% | 110% | 87.7% | 48% | 100% | 101% | 52% | 47.7% | 68.4% | 143% | 103% | 82.7% | 69.2% | 83.6% | 63.2% | 79.8% | 89.2% | 93.8% | 86.1% |
| CCCCCCCCc1ccc(CCC(N)(CO)CO)cc1 [fingolimod] + Nc1cccc2c1CN(C1CCC(=O)NC1=O)C2=O [lenalidomide] (first compound 10 µM, partner dose 5 µM) | 33% | 74% | 29.4% | 0.193% | 31.9% | 53.5% | 67.3% | 38.9% | 21.5% | 72.5% | 4.04% | 0.5% | 10.6% | 97.2% | 79.9% | 20.6% | 51.3% | 59.3% | 12.4% | 62.3% |
| Cc1ccc(NC(=O)c2cccc(N(C)C)c2)cc1NC(=O)c1ccc(O)cc1 + O=C(O)C(=O)Nc1sc2c(c1C(=O)O)CCNC2 [TCS401] (first compound 10 µM, partner dose 8.33333 µM) | 112% | 98.4% | 126% | 130% | 140% | 88.2% | 113% | 84.2% | 93.7% | 170% | 96.8% | 104% | 121% | 79.5% | 103% | 96% | 87.4% | 102% | 65.8% | 71.9% |
| NC(=O)c1ccc(N(C(N)=O)c2c(F)cccc2F)nc1-c1ccc(F)cc1F + NC1(c2ccc(-c3nc4ccn5c(=O)[nH]nc5c4cc3-c3ccccc3)cc2)CCC1 [MK2206] (first compound 2 µM, partner dose 2 µM) | 90.3% | 98% | 105% | 96% | 74.4% | 88.4% | 123% | 86.7% | 86.4% | 74.1% | 41.7% | 79.2% | 95.6% | 70.7% | 90.4% | 64.3% | 69.2% | 71.6% | 90.9% | 57.2% |
| CCCCCCCCc1ccc(CCC(N)(CO)CO)cc1 [fingolimod] + CCCS(=O)(=O)Nc1ccc(F)c(C(=O)c2c[nH]c3ncc(Cl)cc23)c1F [PLX4720] (first compound 10 µM, partner dose 0.4 µM) | 1.05% | 25.8% | 4.49% | 0.309% | 14.6% | 1.16% | 1.2% | 34.9% | 0.793% | 19% | 0.616% | 0.407% | 9.57% | 35.9% | 78.5% | 18% | 6.18% | 61.1% | 2.44% | 21.9% |
| COc1cc2c(Oc3ccc4[nH]c(C)cc4c3F)ncnc2cc1OCCCN1CCCC1 [cediranib] + O=C(O)C(=O)Nc1sc2c(c1C(=O)O)CCNC2 [TCS401] (first compound 2 µM, partner dose 8.33333 µM) | 100% | 121% | 124% | 109% | 79.6% | 94.7% | 110% | 82.2% | 88.8% | 102% | 139% | 105% | 111% | 65.8% | 85.5% | 88.3% | 89% | 100% | 68.8% | 89.5% |
| Cc1ccc(NC(=O)c2cccc(N(C)C)c2)cc1NC(=O)c1ccc(O)cc1 + O=C(O)c1ccc(-c2c[nH]c3ncc(-c4ccccc4)cc23)cc1C1CCCC1 [GSK650394] (first compound 10 µM, partner dose 0.8 µM) | 47.5% | 70% | 60.5% | 102% | 74.6% | 63.5% | 83.1% | 73.4% | 63.4% | 71.9% | 66.6% | 72% | 74.9% | 61.1% | 79.9% | 59.4% | 91% | 87.7% | 100% | 71.7% |
| CN(NC(=O)CC(=O)NN(C)C(=S)c1ccccc1)C(=S)c1ccccc1 + Cc1cc([N+](=O)[O-])ccc1NS(=O)(=O)c1cc(Cl)ccc1Cl [FH535] (first compound 0.03 µM, partner dose 5 µM) | 1.61% | 22.9% | 30.7% | 3.89% | 24.7% | 20.8% | 70.7% | 4.55% | 63.7% | 12% | 13.8% | 5.33% | 79.2% | 29.2% | 64.8% | 39.7% | 8.74% | 68.6% | 23.7% | 70.7% |
| NC(=O)c1ccc(N(C(N)=O)c2c(F)cccc2F)nc1-c1ccc(F)cc1F + CN(NC(=O)CC(=O)NN(C)C(=S)c1ccccc1)C(=S)c1ccccc1 [STA4783] (first compound 2 µM, partner dose 0.03 µM) | 38.7% | 81.1% | 24.7% | 16.4% | 53.2% | 73% | 109% | 19.7% | 53.8% | 66.8% | 34% | 62.7% | 72.3% | 53.5% | 93.6% | 47.3% | 24.8% | 72.6% | 24.8% | 82.6% |
| Cc1ccc(NC(=O)c2cccc(N(C)C)c2)cc1NC(=O)c1ccc(O)cc1 + Cc1cc([N+](=O)[O-])ccc1NS(=O)(=O)c1cc(Cl)ccc1Cl [FH535] (first compound 10 µM, partner dose 5 µM) | 43% | 60.2% | 58.2% | 74.2% | 86.6% | 53.8% | 71.6% | 74.9% | 75.5% | 49.2% | 74.1% | 80.1% | 84.2% | 76.5% | 54.4% | 90.5% | 75.1% | 87.4% | 83.8% | 85.2% |
| CCCCCCCCc1ccc(CCC(N)(CO)CO)cc1 [fingolimod] + CO[C@@H]1[C@H](N(C)C(=O)c2ccccc2)C[C@H]2O[C@]1(C)n1c3ccccc3c3c4c(c5c6ccccc6n2c5c31)C(=O)NC4 [Midostaurin] (first compound 10 µM, partner dose 0.4 µM) | 0.563% | 45.4% | 22.7% | 0.355% | 11.7% | 3.11% | 2.17% | 16.2% | 0.912% | 11.2% | 0.987% | 0.488% | 7.54% | 47.9% | 44.6% | 12.4% | 10.7% | 8.11% | 6.05% | 23.8% |
| CC(C)(C)c1cnc(CSc2cnc(NC(=O)C3CCNCC3)s2)o1 + COc1ccc(-c2ccc3c(N4CCOCC4)nc(N4C[C@@H](C)O[C@@H](C)C4)nc3n2)cc1CO [KU0063794] (first compound 0.05 µM, partner dose 0.1 µM) | 80.1% | 85.8% | 92.7% | 63.4% | 69.5% | 71% | 52.6% | 82.7% | 18.5% | 88.2% | 37.3% | 71.2% | 72% | 53.1% | 95.4% | 96% | 80.6% | 78.8% | 79.8% | 74.8% |
| NC(=O)c1ccc(N(C(N)=O)c2c(F)cccc2F)nc1-c1ccc(F)cc1F + CC(=O)c1c(C)c2cnc(Nc3ccc(N4CCNCC4)cn3)nc2n(C2CCCC2)c1=O [palbociclib] (first compound 2 µM, partner dose 0.2 µM) | 73.4% | 75% | 98.4% | 73.5% | 87.4% | 88.5% | 79.3% | 68.2% | 74.2% | 56.9% | 64.3% | 78.7% | 83.5% | 85.5% | 110% | 80% | 74.3% | 47.3% | 79.2% | 63.2% |
| Cc1ccc(NC(=O)c2cccc(N(C)C)c2)cc1NC(=O)c1ccc(O)cc1 + COc1cc2c(Oc3ccc4[nH]c(C)cc4c3F)ncnc2cc1OCCCN1CCCC1 [cediranib] (first compound 10 µM, partner dose 2 µM) | 93.6% | 107% | 69.4% | 122% | 76.8% | 102% | 115% | 113% | 107% | 485% | 78.8% | 85.2% | 97.1% | 86.4% | 87.2% | 83.6% | 95% | 146% | 99.3% | 75% |
